Screen size: about 270,000 compounds; about 5,800 (2.1%) were called active. Inconclusive means that the source gave no clear call. Such entries were picked first, then a sample of the others. Calls come from the whole dose curve; as a rule, active = well fitted inhibition curve with a large enough effect; inconclusive = small, poorly fitted or top-dose-only effect; inactive = flat fitted curve, though single readings scatter. Potencies beside an inconclusive call are fits to weak or partial responses and may not hold up.
Target: Microtubule-associated protein tau (Homo sapiens) (UniProt P10636)
Assay: qHTS for Inhibitors of Tau Fibril Formation, Thioflavin T Binding; note: nearly all actives have a fitted effect of over 55% in size
Conditions: recombinant tau K18 P301L (four-repeat tau fragment), heparin-induced fibrillization, ThT fluorescence; series mostly up to 57.4 µM
In short: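 Aggregation was driven by heparin (20 uM final) acting on recombinant tau […] bearing P301L in 100 mM sodium acetate pH 7; fibrils were detected with Thioflavin T.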
Potency is the fitted concentration of half-maximal effect; tags give direction and shape of the fitted curve.

Chain of UniProt P10636 (P10636 whole entry, looked up): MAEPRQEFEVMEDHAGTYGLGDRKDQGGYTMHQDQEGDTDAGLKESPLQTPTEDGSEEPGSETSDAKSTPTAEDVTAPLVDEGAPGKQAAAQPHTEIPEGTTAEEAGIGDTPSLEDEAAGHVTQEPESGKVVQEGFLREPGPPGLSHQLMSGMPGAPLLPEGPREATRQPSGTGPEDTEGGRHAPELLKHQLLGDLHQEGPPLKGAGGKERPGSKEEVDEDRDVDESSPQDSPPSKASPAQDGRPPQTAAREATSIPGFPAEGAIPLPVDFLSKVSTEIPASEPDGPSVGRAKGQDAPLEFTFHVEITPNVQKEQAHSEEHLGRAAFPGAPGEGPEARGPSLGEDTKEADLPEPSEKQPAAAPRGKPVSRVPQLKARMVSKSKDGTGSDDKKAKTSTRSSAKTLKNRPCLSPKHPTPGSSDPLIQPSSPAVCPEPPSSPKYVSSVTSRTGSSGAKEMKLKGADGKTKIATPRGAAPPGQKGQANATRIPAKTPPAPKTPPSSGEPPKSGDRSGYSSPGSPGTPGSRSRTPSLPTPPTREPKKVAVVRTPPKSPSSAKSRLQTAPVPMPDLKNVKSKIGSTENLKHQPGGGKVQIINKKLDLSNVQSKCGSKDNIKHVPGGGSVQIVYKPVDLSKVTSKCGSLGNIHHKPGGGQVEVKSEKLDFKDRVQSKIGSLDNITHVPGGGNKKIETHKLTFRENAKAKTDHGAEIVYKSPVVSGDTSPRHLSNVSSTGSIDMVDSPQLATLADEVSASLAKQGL

Row | SMILES | Potency
1 | CC1CCc2c(sc(NC(=O)c3cc(-c4ccc(F)cc4)on3)c2C(N)=O)C1 (stereo not given) | inconclusive: 0.112 µM [inhibitor, full curve, poor fit]
2 | COCCN1C(=O)/C(=C/c2ccc(N3CCCC3)cc2C)SC1=S | active: 7.08 µM
3 | O=C(NCc1ccccc1)C12CN(Cc3ccccc3)CC1C(c1cccc([N+](=O)[O-])c1)=NO2 (stereo not given) | inactive
4 | COC/C=C/C1=CC2=CC(=O)C(C)(OC(=O)c3cnc4ccccc4n3)C(=O)C2=CN1Cc1ccc2c(c1)OCO2 (stereo not given) | inconclusive: 3.98 µM [inhibitor, single point]
5 | Cc1ccc(NC(=O)c2c(NC(=O)c3ccccc3)sc3c2CCC3)cc1 | inactive
6 | Cc1nn(CC(=O)N2CCCCC2)c(=O)c2cc3occc3n12 | inactive
7 | O=C(Nc1ccc(Cl)cc1)c1cc2c(-c3ccccc3)nn(-c3ccccc3)c2s1 | inactive
8 | CC(C)(C)c1ccc(C(=O)OC/C(O)=C(\C#N)c2nc3ccccc3s2)cc1 | inconclusive: 17.8 µM [inhibitor, partial curve]
9 | CCOC(=O)c1ccc(NC(=S)NCCCN2CCCC2=O)cc1 | inconclusive: 17.8 µM [inhibitor, partial curve]
10 | CC(=O)Nc1ccc(N2CCCC(C)C2)c([N+](=O)[O-])c1 (stereo not given) | inconclusive: 17.8 µM [inhibitor, partial curve]
11 | O=C(Nc1cc(S(=O)(=O)N2CCOCC2)ccc1-n1cncn1)c1ccc(Cl)cc1 | inactive
12 | Cc1ccc(Cl)cc1NC(=O)CCS(=O)(=O)c1ccc2c(c1)n(C)c(=O)c(=O)n2C | inconclusive: 39.8 µM [inhibitor, single point]
13 | O=C(Nc1cc(S(=O)(=O)N2CCOCC2)ccc1N1CCOCC1)C1CCCO1 (stereo not given) | inactive
14 | COc1cc(CNCCc2c[nH]c3ccccc23)cc(Cl)c1OCC(N)=O | inactive
15 | COC(=O)CCC(=O)OC1(C)C(=O)C=C2C=C(C3CC3)N(CCc3c[nH]c4ccccc34)C=C2C1=O (stereo not given) | inconclusive: 5.62 µM [inhibitor, partial curve]
16 | c1ccc(C2CC(c3cccs3)=NN2c2ccccc2)cc1 (stereo not given) | inconclusive: 0.0631 µM [inhibitor, full curve, poor fit]
17 | O=C(/C=C/c1cccs1)Nc1ccc([N+](=O)[O-])cc1 | inconclusive: 12.6 µM [inhibitor, partial curve]
18 | Cc1cccc(-c2nc(C(N)=O)c3c(n2)n(-c2ccc4c(c2)OCO4)c(=O)n3C)c1 | inactive
19 | O=C(CSc1nc2cc(S(=O)(=O)N3CCOCC3)ccc2o1)NC1CCCc2ccccc21 (stereo not given) | inactive
20 | COc1ccc2nc(SCc3ccccc3)nc(C)c2c1 | inconclusive: 11.2 µM [inhibitor, partial curve]

From PubChem BioAssay AID1460 (National Center for Advancing Translational Sciences (NCATS), 2008)
